Measured values reported in PubChem BioAssay AID651820 (National Center for Advancing Translational Sciences (NCATS), 2012).
“And” between values parts separate entries of the source, which are not always exact repeats. Equal entries are not always repeated. Out of some 340,000 compounds screened, about 12,000 (3.5%) were called active. This list was built around the results that the source calls inconclusive (neither active nor inactive); the mix of calls is not that of the screen. Calls follow the shape of the dose curve; as a rule, active = well fitted inhibition curve with a large enough effect; inconclusive = small, poorly fitted or top-dose-only effect, or another doubt; inactive = no such curve, though single readings can be large or run the other way. Where the call is inconclusive, the potency comes from a doubtful curve fit.

Experiment: qHTS Assay for Inhibitors of Hepatitis C Virus (HCV)
Conditions: Huh7.5.1 HCVcc-Cre (HCVcc is cell-culture hepatitis C virus) infection, luciferase reporter, 44 h; series mostly up to 41.8 µM
In short: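 Reporter virus HCVcc-Cre (~0.5 moi) infects cells exposed to compound; seeding density 1,000 cells/well with 4 h settling beforehand. Luminescence, 15 sec read, taken 44 h post-infection following a 15 min RT substrate incubation.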
Potency is read from the fitted curve at half-maximal effect; tags tell the direction and shape of the fitted curve.

SMILES	Potency
COc1cccc(CN2CCN(C(=O)c3cc(-c4ccncc4)nc4ccc(C)cc34)CC2)c1	inconclusive: 14.1 µM [inhibitor, single point]
CC(O)c1nc2ccccc2n1C1CCCCC1 (configuration not stated)	inactive
Cc1ccc(NC(c2ccccc2)c2nc3ccccc3[nH]c2=O)cc1 (configuration not stated)	inconclusive: 14.1 µM [inhibitor, single point]
O=C(Nc1ccc(O)cc1)c1cc(S(=O)(=O)N2CCCC2)ccc1Cl	inactive
CCOc1cc(/C=N/NC(N)=O)cc(Br)c1OCC(=O)Nc1ccccc1C	inconclusive: 11.2 µM [inhibitor, partial curve]
COC(=O)Nc1[nH]ncc1[N+](=O)[O-]	inactive
Cc1ccc(N=C2NC(=O)/C(=C/c3cccnc3)S2)c(C)c1	inactive
CC(=O)c1cccc(NC(=O)c2oc(C)nc2C)c1	inconclusive: 3.98 µM [inhibitor, single point]
Cc1cc(Br)c(NC(=O)CCNC(=O)OCc2ccccc2)cc1C	inconclusive: 10 µM [inhibitor, partial curve]
COc1ccc(-n2cnnc2SCC(=O)Nc2cccc([N+](=O)[O-])c2)cc1	inconclusive: 10 µM [inhibitor, single point]
COc1ccc(NS(=O)(=O)c2cccc(C(=O)NNC(=O)c3cncc(Br)c3)c2)cc1	inconclusive: 5.62 µM [inhibitor, single point]
CCc1ccccc1OCCCCN1CCCCC1	inconclusive: 20 µM [inhibitor, single point]
COc1ccc(NS(=O)(=O)c2ccc3nc(COc4ccc5ccccc5c4)[nH]c3c2)cc1	active: 7.94 µM
COCC(C)n1c(SCc2ccc(C(=O)OC)o2)nc2ccccc2c1=O (configuration not stated)	inconclusive: 35.5 µM [inhibitor, partial curve]
CC(C)(C)NC(=O)NC(=O)COC(=O)c1ccc2c(c1)S(=O)(=O)N=C1CCCCCN12	inconclusive: 5.01 µM [inhibitor, single point]
CCCc1ccc2oc(C(=O)N(C)CCn3ccnc3C)c(C)c2c1	inconclusive: 31.6 µM [inhibitor, single point]
COC(=O)c1cc(NC(=O)c2cc(C(C)(C)C)nn2Cc2cccc(C)c2)ccc1N1CCOCC1	inconclusive: 35.5 µM [inhibitor, partial curve, poor fit]
COc1ccc(Oc2nnc(-c3ccccc3)cc2C#N)cc1	inactive
O=Cc1ccccc1OCCN1CCCC1=O	inactive
CCN(CCCNC(=O)CNC(=O)c1nn(-c2ccc(OC)cc2)c(=O)c2ccccc12)c1cccc(C)c1	inconclusive: 35.5 µM [inhibitor, single point]
COc1ccccc1NC(=O)COc1ccc(CO)cc1Cl	active: 10 µM

SMILES	Potency
COc1ccccc1CNC(=O)[C@H](C)NC(=O)C1CCN(C(=O)[C@@H](N)CC(C)C)CC1	inactive
O=C(c1ccc(COc2ccccc2Cl)o1)N1CCN(Cc2ccc3c(c2)OCO3)CC1	inconclusive: 31.6 µM [inhibitor, single point] and inconclusive: 15.8 µM [inhibitor, single point]
Brc1ccc(C[n+]2ccccc2)cc1	active: 7.94 µM
CCCCCNC(=O)c1cc(S(=O)(=O)N2CCCCC2)ccc1F	inactive
C/C(O)=c1/ccc2cccc3nc(C)nc1c23	inconclusive: 31.6 µM [inhibitor, single point]
NC(=O)c1ccccc1NC(=O)/C=C/c1cccc(Cl)c1	inconclusive: 31.6 µM [inhibitor, single point]
O=C(CSc1nnc(-c2n[nH]c3ccccc23)n1-c1ccccc1)Nc1ccccc1Cl	inconclusive: 15.8 µM [inhibitor, single point]
CCOC(=O)N1CCC(N2CCCC(C(=O)c3cc(C)c(OC)c(C)c3)C2)CC1 (configuration not stated)	inconclusive: 10 µM [inhibitor, partial curve]
O=C(Nc1ccc(C(F)(F)F)cc1)C1CCCN1S(=O)(=O)c1cccc2cccnc12 (configuration not stated)	inconclusive: 31.6 µM [inhibitor, single point]
COc1ccc(S(=O)(=O)Nc2cccc3c2O[C@H](CN(C)CC2CC2)[C@@H](C)CN([C@H](C)CO)C3=O)cc1	inconclusive: 3.16 µM [inhibitor, single point]
O=S(=O)(Cc1ccccc1Cl)N1CCCCC1	inconclusive: 31.6 µM [inhibitor, single point]
COC(=O)[C@]12OC[C@]34C([C@@H](O)[C@@H]1O)[C@]1(C)CC(=O)C(O)=C(C)[C@@H]1C[C@H]3OC(=O)[C@H](O)[C@@H]24 (some centres not stated)	inconclusive: 0.891 µM [inhibitor, full curve, poor fit]
CCOCCCNCc1ccc(OCc2ccccc2Cl)cc1	inconclusive: 22.4 µM [inhibitor, single point]
C#CCN1Cc2ccccc2Oc2cc(Br)ccc2S1(=O)=O	inconclusive: 28.2 µM [inhibitor, single point]
O=S(=O)(NCC1CCCO1)c1cc(Br)c(Br)s1 (configuration not stated)	inconclusive: 35.5 µM [inhibitor, single point]
Cc1ccc(C(=O)N/C(=C/c2cccs2)C(=O)NCC2CCCO2)cc1 (configuration not stated)	inconclusive: 31.6 µM [inhibitor, single point]
COc1ccccc1N1CCN(C(=O)c2ccc(Br)s2)CC1	inconclusive: 35.5 µM [inhibitor, partial curve, poor fit]
CCCC(=O)O[C@H]1C[C@@H](C)N(C(=O)c2ccccc2)c2ccc(C)cc21	inconclusive: 11.2 µM [inhibitor, single point]
CC(C)CC(=O)OC1C(N2CCOCC2)c2c(ccc(/C=C/C(=O)N3CCOCC3)c2O)OC1(C)C (configuration not stated)	inactive
COc1ccc(S(=O)(=O)NCc2ccncc2)cc1NC(=O)c1ccccc1F	inconclusive: 7.94 µM [inhibitor, partial curve]
COc1ccc(NC(=O)Nc2ccc(OCc3ccccc3)cc2)cn1	inconclusive: 12.6 µM [inhibitor, single point]
